“And” between values parts separate entries of the source, which are not always exact repeats. Identical values can stand only once.
The binders below were run against human CD40 (human) (UniProt P25942) (assay: cell-based or functional assay).
Chain of UniProt P25942 (P25942 21-277 limits assumed): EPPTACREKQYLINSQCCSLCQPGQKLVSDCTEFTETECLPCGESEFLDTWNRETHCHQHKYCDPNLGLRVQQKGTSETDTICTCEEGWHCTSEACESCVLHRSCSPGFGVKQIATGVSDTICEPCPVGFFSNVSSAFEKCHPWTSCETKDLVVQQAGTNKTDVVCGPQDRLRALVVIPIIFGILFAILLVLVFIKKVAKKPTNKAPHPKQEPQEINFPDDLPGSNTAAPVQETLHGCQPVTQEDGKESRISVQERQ

CHO-hCD40L-driven DC Activation IL-12 EC50 [pM] | CHO-hCD40L-driven Human B Cell Proliferation EC50 | T-B cell MLR EC50 | hIZCD40L-driven Human B Cell Proliferation EC50 | CHO-hCD40L-driven DC Activation IL-6 EC50 [pM] | CHO-hCD40L-driven DC Activation TNF EC50 [pM] | Binder
310 | 600 pM | 2000 pM | 63 pM |  |  | 3h56-258-IgG1* (Fc fusion) EVQLLESGGGLVQPGGSLRLSCAASGFTFRDYEMWWVRQAPGKGLERVSAINPQGTRTYYADSVKGRFTISRDNSKNTLYLQMNSLRAEDTAVYYCAKLPFYFHEWGQGTLVTVSS[human IgG1 Fc with changes not given here]
670 | 6000 pM and 10000 pM | 16700 pM | 200 pM and 150 pM |  |  | 3h38-235-IgG4 (Fc fusion) EVQLLASGGGLVQPGGSLRLSCAASGFTFEEEEMIWVRQAPGKGLEWVSAISRNGYSTYYADSVKGRFTISRDNSKNTLYLQMNSLRAEDTAVYYCGKEPFRYDYWGQGTLVTVSS[human IgG4 Fc with S228P (EU numbers) not given here]
530 | 5000 pM and 3000 pM | 5000 pM and 6000 pM | 160 pM |  |  | 3h37-202-IgG4 (Fc fusion) EVQLLESGGGLVQPGGSLRLSCAASGFTFEWYEMQWVRRAPGKGLEWVSAISGDGWRTYYADSVKGRFTISRDNSKNTLYLQMNSLRAEDTAVYYCAKELGYFDYWGRGTLVTVSS[human IgG4 Fc with S228P (EU numbers) not given here]
300 | 1000 pM | 2400 pM | 160 pM | 110 | 220 | 3h56-258-IgG4 (Fc fusion) EVQLLESGGGLVQPGGSLRLSCAASGFTFRDYEMWWVRQAPGKGLERVSAINPQGTRTYYADSVKGRFTISRDNSKNTLYLQMNSLRAEDTAVYYCAKLPFYFHEWGQGTLVTVSS[human IgG4 Fc with S228P (EU numbers) not given here]
880 | 4000 pM |  | 250 pM |  |  | 3h38-235-IgG1* (Fc fusion) EVQLLASGGGLVQPGGSLRLSCAASGFTFEEEEMIWVRQAPGKGLEWVSAISRNGYSTYYADSVKGRFTISRDNSKNTLYLQMNSLRAEDTAVYYCGKEPFRYDYWGQGTLVTVSS[human IgG1 Fc with changes not given here]
740 | 3000 pM and 7000 pM |  | 270 pM and 220 pM |  |  | 3h37-202-IgG1* (Fc fusion) EVQLLESGGGLVQPGGSLRLSCAASGFTFEWYEMQWVRRAPGKGLEWVSAISGDGWRTYYADSVKGRFTISRDNSKNTLYLQMNSLRAEDTAVYYCAKELGYFDYWGRGTLVTVSS[human IgG1 Fc with changes not given here]

Reference: US20200199244A1
